According to the supplement of paper PMC12217912:
Some of the results follow. The full chains were built here from the parent and the listed change. Values near 0.05 are background.

B1: TEV protease; numbered along this chain (parent)
chain: MGESLFKGPRDYNPISSSICHLTNESDGHTTSLYGIGFGPFIITNKHLFRRNNGTLVVQSLHGVFKVKDTTTLQQHLVDGRDMIIIRMPKDFPPFPQKLKFREPQREERICLVTTNFQTKSMSSMVSDTSCTFPSGDGIFWKHWIQTKDGQCGSPLVSTRDGFIVGIHSASNFTNTNNYFTSVPKNFMELLTNQEAQQWVSGWRLNADSVLWGGHKVFMVKPEEPFQPVKEATQL

Variants of: B1
Assay: raw area under fraction-flipped curve 0-4 h after induction (AUC4h, not background-subtracted), DNA-recorder readout of cleavage of the substrate (dimensionless); higher = more cleavage of the substrate by the protease variant
Settings: temperature: 34 °C; time window: 0-4 h after rhamnose induction
Description: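 In vivo DNA recorder in E. coli TOP10(DE3) ΔrhaA at 34 °C. Each TEVp single-site mutant (parent TEVp 0) is paired with a single-site variant of the 7-mer TEVs (canonical ENLYFQ|S). The substrate sits between flexible linkers in a Bxb1-sfGFP-TEVs-SsrA fusion, so cleavage stabilises Bxb1 and speeds flipping of a recombination array, read by NGS. The value is the raw area under the fraction-flipped curve over 0-4 h after rhamnose induction (AUC4h), with ≥20 reads per time point. It is not background-subtracted; inactive controls average about 0.047.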
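Also: Bxb1 expression induced with 0.2% (w/v) L-rhamnose at OD600 near 0.5, cultures sampled hourly, flipped fraction per protease–substrate barcode pair counted by paired-end Illumina sequencing.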

Row | Variant | area with substrate EALYFQS | area with substrate EELYFQS | area with substrate ELLYFQS | area with substrate EMLYFQS | area with substrate EPLYFQS | area with substrate EQLYFQS | area with substrate ERLYFQS | area with substrate ESLYFQS | area with substrate EWLYFQS | area with substrate EYLYFQS | area with substrate ECLYFQS | area with substrate EDLYFQS | area with substrate EFLYFQS | area with substrate EGLYFQS | area with substrate EHLYFQS | area with substrate EILYFQS | area with substrate EKLYFQS | area with substrate ETLYFQS | area with substrate EVLYFQS
1 | V217W | 0.0535 | 0.0672 | 0.0615 | 0.0604 | 0.0641 | 0.066 | 0.0684 | 0.0639 | 0.0635 | 0.0627 | – | – | – | – | – | – | – | – | –
2 | G150C | 0.0643 | 0.0558 | 0.0494 | 0.0628 | – | 0.0602 | 0.0666 | 0.0563 | 0.0698 | 0.0323 | 0.0541 | 0.054 | 0.0646 | 0.0539 | 0.0593 | 0.0618 | 0.0632 | 0.065 | 0.0588
3 | D69G | 0.079 | 0.0992 | – | 0.103 | – | – | – | 0.0833 | 0.0875 | 0.0489 | 0.0861 | – | – | 0.106 | 0.0644 | 0.0663 | 0.0879 | – | 0.0713
4 | Q194G | 0.118 | 0.0894 | 0.0943 | 0.134 | 0.113 | – | 0.107 | 0.106 | 0.0941 | 0.107 | 0.123 | 0.145 | 0.121 | 0.12 | 0.121 | 0.114 | 0.116 | 0.0933 | 0.108
5 | K221E | 0.116 | 0.0915 | 0.0859 | 0.0946 | 0.115 | 0.0867 | – | 0.0957 | 0.0904 | 0.0445 | 0.0886 | 0.15 | 0.0873 | 0.0768 | 0.104 | 0.0723 | 0.126 | – | 0.06
6 | Q234G | 0.159 | – | 0.108 | 0.0593 | – | – | 0.106 | – | 0.106 | 0.0958 | – | 0.146 | – | – | 0.12 | 0.0873 | 0.105 | – | 0.0951
7 | P104C | 0.0915 | 0.102 | 0.0778 | 0.0906 | 0.095 | 0.0903 | 0.0784 | 0.1 | 0.115 | – | 0.114 | 0.115 | 0.074 | – | 0.104 | 0.0752 | 0.0823 | – | 0.078
8 | D208C | 0.0593 | 0.0961 | – | 0.0461 | 0.0541 | 0.1 | 0.0917 | 0.079 | 0.0733 | – | 0.0798 | 0.0774 | – | – | 0.0697 | 0.0709 | 0.084 | 0.0696 | 0.066
9 | R106K | 0.123 | 0.133 | – | – | 0.112 | 0.14 | – | 0.112 | 0.126 | 0.0946 | 0.101 | – | 0.105 | 0.106 | – | 0.101 | – | – | –
10 | V220Q | 0.128 | 0.0893 | 0.0916 | 0.0996 | 0.133 | 0.127 | 0.129 | 0.0953 | 0.134 | 0.0984 | 0.118 | 0.104 | 0.116 | 0.108 | 0.113 | 0.1 | 0.123 | 0.117 | 0.129
11 | C152Q | 0.0589 | – | – | – | 0.0558 | – | – | 0.0692 | 0.0594 | – | – | – | 0.0743 | – | – | 0.0594 | – | – | 0.0594
12 | R51I | 0.0934 | – | – | 0.0902 | – | – | 0.0904 | 0.0813 | – | 0.0522 | 0.0393 | 0.0879 | 0.0835 | 0.0781 | – | 0.05 | 0.0886 | 0.0764 | 0.13
